This is an account of results in the supplement of paper PMC10037445.

Molecules are shown by their SMILES. “And” between values parts separate entries of the source, which are not always exact repeats. Equal values may be shown once. In all, about 2,900 compounds were measured (“NF-kB SEAP reporter activity, fold change vs agonist alone”: median about 0.99, highest 2% from about 2.6 on). Some of the results follow.

Assay [1] relates to RAW-Dual. Briefly: NF-kB SEAP reporter activity, fold change vs agonist alone; higher = enhanced NF-kB activity. A digest of the protocol:
(§1)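 Library stock was pin-tooled at 50 nL into 384-well plates of RAW-Dual macrophages (50,000 cells/well, DMEM), followed 1 h later by a PRR agonist, and the cells were kept at 37 °C, 5% CO2. Supernatant collected after 20 hours was read for IRF by QuantiLuc luminescence and for NF-κB by QuantiBlue absorbance at 620 nm. Reporter activity is fold change over agonist-alone wells, and a well counted as cytotoxic when its IncuCyte confluency was below 70% of agonist controls in both mask sets.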

For assay [2], the system named is RAW-Dual. As to the kind of experiment: NF-kB SEAP reporter activity, fold change vs agonist alone; cytotoxicity flag (confluency mask): not cytotoxic; higher = enhanced NF-kB activity. A digest of the protocol: as §1
The test system of assay [3] is RAW-Dual. Briefly: NF-kB SEAP reporter activity, fold change vs agonist alone; cytotoxicity flag (confluency mask): cytotoxic (confluency <70% of control); higher = enhanced NF-kB activity. A digest of the protocol:
as §1

The mark [4] stands for this setting: library stock concentration (final ~1000-fold dilution): 10 mM, cytotoxicity flag (confluency mask): not cytotoxic, agonist: Imiquimod (TLR7) […].
The mark [5] stands for this setting: library stock concentration (final ~1000-fold dilution): 10 mM, cytotoxicity flag (confluency mask): not cytotoxic, agonist: MPLA (TLR4) […].
The mark [6] stands for this setting: agonist: ODN 1826 (TLR9) 0.5 ug/mL.
The mark [7] stands for this setting: agonist: Pam2CSK4 (TLR2/6) 0.1 ug/mL.
Where [8] appears, read: agonist: Pam3CSK4 (TLR2/1) 0.1 ug/mL.
Where [9] appears, read: library stock concentration (final ~1000-fold dilution): 10 mM, cytotoxicity flag (confluency mask): cytotoxic (confluency <70% of control), agonist: Imiquimod (TLR7) […].
Where [10] appears, read: library stock concentration (final ~1000-fold dilution): 10 mM, cytotoxicity flag (confluency mask): cytotoxic (confluency <70% of control), agonist: MPLA (TLR4) […].
Where [11] appears, read: library stock concentration (final ~1000-fold dilution): 2 mM, cytotoxicity flag (confluency mask): not cytotoxic, agonist: Imiquimod (TLR7) […].
Setting [12] is: library stock concentration (final ~1000-fold dilution): 2 mM, cytotoxicity flag (confluency mask): not cytotoxic, agonist: MPLA (TLR4) […].

As to `CCCc1nc(C)c2c(=O)[nH]c(-c3cc(S(=O)(=O)N4CCN(CC)CC4)ccc3OCC)nn12.Cl.O.O.O`, the “NF-kB SEAP reporter activity” value in assay [1] (setting [4]) came to 1.07; in assay [1] (setting [5]), 1.05.

Take `CCCc1nc(C)c2c(=O)[nH]c(-c3cc(S(=O)(=O)N4CCN(CC)CC4)ccc3OCC)nn12.Cl.O.O.O` (library stock concentration (final ~1000-fold dilution): 10 mM): the “NF-kB SEAP reporter activity” value is 1.37 in assay [2] (agonist: LPS (TLR4) 0.1 ug/mL), 0.93 in assay [2] (setting [6]), 0.912 in assay [2] (setting [7]) and 1.2 in assay [2] (setting [8]).

Turning to `C=Cc1c(C)c2cc3nc(cc4[nH]c(cc5nc(cc1[nH]2)C(C)=C5CCC(=O)O)c(CCC(=O)OC)c4C)C1(C)C3=CC=C(C(=O)OC)C1C(=O)OC` (centres undefined) (library stock concentration (final ~1000-fold dilution): 10 mM), the “NF-kB SEAP reporter activity” value in assay [3] (agonist: LPS (TLR4) 0.1 ug/mL) came out at 0.243; in assay [3] (setting [6]), 0.233; in assay [3] (setting [7]), 0.193; in assay [3] (setting [8]), 0.191.

In the case of `C=Cc1c(C)c2cc3nc(cc4[nH]c(cc5nc(cc1[nH]2)C(C)=C5CCC(=O)O)c(CCC(=O)OC)c4C)C1(C)C3=CC=C(C(=O)OC)C1C(=O)OC` (centres undefined), the “NF-kB SEAP reporter activity” value turned out to be 0.297 in assay [1] (setting [9]) and 0.349 in assay [1] (setting [10]).

As to `NC(=O)Nc1sc(-c2ccc(F)cc2)cc1C(N)=O` (library stock concentration (final ~1000-fold dilution): 10 mM), the “NF-kB SEAP reporter activity” value in assay [3] (agonist: LPS (TLR4) 0.1 ug/mL) was 0.276 and 0.305; in assay [3] (setting [6]), 0.188 and 0.21; in assay [3] (setting [7]), 0.0797 and 0.0735; in assay [3] (setting [8]) it was 0.139 and 0.173.

Turning to `C/C=C1/C2C=C(C)CC1(N)c1ccc(=O)[nH]c1C2` (centres undefined) (library stock concentration (final ~1000-fold dilution): 2 mM), the “NF-kB SEAP reporter activity” value is 1.33 in assay [2] (agonist: LPS (TLR4) 0.1 ug/mL), 1.01 in assay [2] (setting [6]), 1.14 in assay [2] (setting [7]) and 1.01 in assay [2] (setting [8]).

As to `C/C=C1/C2C=C(C)CC1(N)c1ccc(=O)[nH]c1C2` (centres undefined), the “NF-kB SEAP reporter activity” value was 0.822 in assay [1] (setting [11]) and 1.1 in assay [1] (setting [12]).

As for `CCCCCCCC(=O)NC(CN1CCCC1)C(O)c1ccc2c(c1)OCCO2` (centres undefined) (library stock concentration (final ~1000-fold dilution): 10 mM), the “NF-kB SEAP reporter activity” value in assay [2] (agonist: LPS (TLR4) 0.1 ug/mL) amounted to 0.923; in assay [2] (setting [6]) it was 0.99; in assay [2] (setting [7]) it was 1.01; in assay [2] (setting [8]), 1.02.

Consider `CCCCCCCC(=O)NC(CN1CCCC1)C(O)c1ccc2c(c1)OCCO2` (centres undefined), for which the “NF-kB SEAP reporter activity” value came out at 1.08 in assay [1] (setting [4]) and 1.24 in assay [1] (setting [5]).

Consider `C#CCNC1CCc2ccccc21.CS(=O)(=O)O` (centres undefined), for which the “NF-kB SEAP reporter activity” value in assay [1] (setting [4]) was found to be 0.895; in assay [1] (setting [5]) it was 0.95.

Take `C#CCNC1CCc2ccccc21.CS(=O)(=O)O` (centres undefined) (library stock concentration (final ~1000-fold dilution): 10 mM): the “NF-kB SEAP reporter activity” value in assay [2] (agonist: LPS (TLR4) 0.1 ug/mL) was found to be 1.32; in assay [2] (setting [6]), 0.944; in assay [2] (setting [7]) it was 0.701; in assay [2] (setting [8]) it was 1.06.

With `C[C@@H]1O[C@@H](OC[C@H]2O[C@@H](Oc3c(-c4ccc(O)c(O)c4)oc4cc(O)cc(O)c4c3=O)[C@H](O)[C@@H](O)[C@@H]2O)[C@H](O)[C@H](O)[C@H]1O` (library stock concentration (final ~1000-fold dilution): 10 mM), the “NF-kB SEAP reporter activity” value came to 0.759 in assay [2] (agonist: LPS (TLR4) 0.1 ug/mL), 0.686 in assay [2] (setting [6]), 0.365 in assay [2] (setting [7]) and 0.563 in assay [2] (setting [8]).

Consider `C[C@@H]1O[C@@H](OC[C@H]2O[C@@H](Oc3c(-c4ccc(O)c(O)c4)oc4cc(O)cc(O)c4c3=O)[C@H](O)[C@@H](O)[C@@H]2O)[C@H](O)[C@H](O)[C@H]1O`, for which the “NF-kB SEAP reporter activity” value in assay [1] (setting [4]) and in assay [1] (setting [5]) was 1.23 throughout.

With `CCn1cc(C(=O)O)c(=O)c2cc(F)c(N3CCN(C)CC3)cc21.CS(=O)(=O)O` (library stock concentration (final ~1000-fold dilution): 10 mM), the “NF-kB SEAP reporter activity” value in assay [2] (agonist: LPS (TLR4) 0.1 ug/mL) was 0.962; in assay [2] (setting [6]) it was 1.03; in assay [2] (setting [7]), 1.11; in assay [2] (setting [8]), 1.12.

Take `CCn1cc(C(=O)O)c(=O)c2cc(F)c(N3CCN(C)CC3)cc21.CS(=O)(=O)O`: the “NF-kB SEAP reporter activity” value in assay [1] (setting [4]) was 0.916; in assay [1] (setting [5]) it was 0.878.

Take `Cc1nn(C)c(COc2ccc(N3CCN(S(=O)(=O)N(C)C)CC3)cc2)c1-c1cccc2c(CCCOc3cccc4ccccc34)c(C(=O)O)n(CCN3CCOCC3)c12` (library stock concentration (final ~1000-fold dilution): 2 mM): the “NF-kB SEAP reporter activity” value in assay [2] (agonist: LPS (TLR4) 0.1 ug/mL) came to 1.01; in assay [2] (setting [6]) it was 1.15; in assay [2] (setting [7]), 1.15; in assay [2] (setting [8]), 0.95.

`Cc1nn(C)c(COc2ccc(N3CCN(S(=O)(=O)N(C)C)CC3)cc2)c1-c1cccc2c(CCCOc3cccc4ccccc34)c(C(=O)O)n(CCN3CCOCC3)c12`: the “NF-kB SEAP reporter activity” value in assay [1] (setting [11]) stood at 0.932; in assay [1] (setting [12]), 1.07.

Turning to `N[C@@H](C=O)[C@@H](O)[C@H](O)[C@H](O)CO` (library stock concentration (final ~1000-fold dilution): 10 mM), the “NF-kB SEAP reporter activity” value in assay [2] (agonist: LPS (TLR4) 0.1 ug/mL) was determined as 0.651; in assay [2] (setting [6]), 0.78; in assay [2] (setting [7]) it was 0.49; in assay [2] (setting [8]) it was 0.508.

For the compound `N[C@@H](C=O)[C@@H](O)[C@H](O)[C@H](O)CO`, the “NF-kB SEAP reporter activity” value was 0.969 in assay [1] (setting [4]) and 1.05 in assay [1] (setting [5]).

Turning to `CC1=CC(=O)c2ccccc2C1=O`, the entries for the “NF-kB SEAP reporter activity” value in assay [1] (setting [9]) and in assay [1] (setting [10]) were 0.148 and 0.147, respectively.

On to `CC1=CC(=O)c2ccccc2C1=O` (library stock concentration (final ~1000-fold dilution): 10 mM), for which the “NF-kB SEAP reporter activity” value is 0.204 in assay [3] (agonist: LPS (TLR4) 0.1 ug/mL), 0.152 in assay [3] (setting [6]), 0.282 in assay [3] (setting [7]) and 0.151 in assay [3] (setting [8]).

As for `CC(O)C1C(=O)N2C(C(=O)O)=C(SCCNC=N)CC12.O` (centres undefined), the “NF-kB SEAP reporter activity” value in assay [1] (library stock concentration (final ~1000-fold dilution): 10 mM water, cytotoxicity flag (confluency mask): not cytotoxic, agonist: Imiquimod (TLR7) […]) stood at 0.896; in assay [1] (library stock concentration (final ~1000-fold dilution): 10 mM water, cytotoxicity flag (confluency mask): not cytotoxic, agonist: MPLA (TLR4) […]) it was 1.02.

Take `CC(O)C1C(=O)N2C(C(=O)O)=C(SCCNC=N)CC12.O` (centres undefined) (library stock concentration (final ~1000-fold dilution): 10 mM water): the “NF-kB SEAP reporter activity” value is 1.41 in assay [2] (agonist: LPS (TLR4) 0.1 ug/mL), 1.16 in assay [2] (setting [6]), 1.23 in assay [2] (setting [7]) and 1.07 in assay [2] (setting [8]).

For `CCCc1nc2c(C)cc(-c3nc4ccccc4n3C)cc2n1Cc1ccc(-c2ccccc2C(=O)O)cc1` (library stock concentration (final ~1000-fold dilution): 10 mM), the “NF-kB SEAP reporter activity” value in assay [2] (agonist: LPS (TLR4) 0.1 ug/mL) was 0.995; in assay [2] (setting [6]) it was 1.07; in assay [2] (setting [7]) it was 0.68; in assay [2] (setting [8]) it was 0.76.
